Source: PubChem BioAssay AID624296 (National Center for Advancing Translational Sciences (NCATS), 2012)
Hit rate of the full screen: of about 350,000 compounds, about 9,900 (2.8%) were called active. Inconclusive results, whose numbers are uncertain, are shown with a selection of clear calls. The call rests on the fitted dose curve; in most records, active means well fitted activation curve with a large enough effect; inconclusive means small, poorly fitted or top-dose-only effect; inactive means no such curve, though single readings can be large or run the other way. Potencies of inconclusive entries are left out as doubtful fits.

Test: A quantitative high throughput screen for small molecules that induce DNA re-replication in MCF 10a normal breast cells. Further: nearly all actives have a fitted effect of over 50% in size.
Settings: MCF 10A DNA re-replication, Hoechst nuclear intensity, 48 h; series mostly up to 46.1 µM
Potency means the concentration at half of the fitted maximal effect; tags describe the fitted curve by direction and shape.

SMILES	Potency
C=CC(=O)Nc1cccc(Oc2cc(Cl)nc3[nH]ccc23)c1	inconclusive [activator, single point]
O=S(=O)(c1ccccc1F)N1CCN(CCOc2ccccc2)CC1	inactive
CCCn1c(C(C)Nc2nc(-c3ccc(OC)cc3)cs2)nc2ccccc21 (stereo not drawn)	inconclusive [activator, single point]
COc1cc(NC(=O)C2CCCCC2)c(OC)cc1NC(=O)c1ccccc1	inconclusive [activator, single point]
CC(C)COc1ccc(C(=O)N(CC(=O)Nc2ccccc2C(F)(F)F)Cc2ccco2)cc1	inconclusive [activator, single point]
Cc1ccc(Cn2ncn3c(cc4ccccc43)c2=O)cc1	inconclusive [activator, partial curve, poor fit]
COc1ccc(OC)c(CN2CCN(c3ccc(S(=O)(=O)N4CCCC4)cn3)CC2)c1	inconclusive [activator, partial curve]
O=C1CSC(c2cn(-c3ccccc3)nc2-c2cc3ccccc3oc2=O)N1Cc1ccccc1 (stereo not drawn)	inconclusive [activator, full curve, poor fit]
COc1ccc(C(=O)Nc2ccc(NC(=O)c3ccco3)cc2)cc1	inactive
O=C(Nc1ccc(Cl)cc1C(=O)NCC1CCCO1)c1ccco1 (stereo not drawn)	inconclusive [activator, single point]
O=C(Cc1ccc(NC(=O)C2CCN(C(=O)CCc3ccccc3)CC2)cc1)Nc1ccc(C(=O)N2CCOCC2)cc1	inactive
O=C1CC(c2ccccc2)c2cccc(F)c21 (stereo not drawn)	inactive
N=c1c(S(=O)(=O)c2ccc(Br)cc2)cc2c(=O)n3ccccc3nc2n1Cc1ccccc1	inconclusive [activator, full curve]
COc1ccc(C(C)(C)C)cc1NC(=O)CCCN1C(=O)CN(C)C1=O	inactive
CC1CCCC(C)N1C(=O)CSc1nc2ccccc2s1 (stereo not drawn)	inconclusive [activator, single point]
CCCCN(C(=O)CCC(=O)Nc1cc(C)on1)C(C(=O)NC1CCCC1)c1ccc(F)cc1 (stereo not drawn)	inconclusive [activator, single point]
COc1ccc(-c2csc(NC(=O)c3ccc(S(=O)(=O)N4CCc5ccccc5C4)cc3)n2)cc1	inconclusive [activator, partial curve, poor fit]
CC(NC(=O)C1CCC(C)(C(=O)O)C1(C)C)c1ccccc1 (stereo not drawn)	inconclusive [activator, single point]
